This is one part of the list. The full chains were built here from the parent and the listed change. Inactive controls read about 0.05.
B1: TEV protease; numbered along this chain (parent)
chain: MGESLFKGPRDYNPISSSICHLTNESDGHTTSLYGIGFGPFIITNKHLFRRNNGTLVVQSLHGVFKVKDTTTLQQHLVDGRDMIIIRMPKDFPPFPQKLKFREPQREERICLVTTNFQTKSMSSMVSDTSCTFPSGDGIFWKHWIQTKDGQCGSPLVSTRDGFIVGIHSASNFTNTNNYFTSVPKNFMELLTNQEAQQWVSGWRLNADSVLWGGHKVFMVKPEEPFQPVKEATQL

Variants of: B1
Assay: raw area under fraction-flipped curve 0-4 h after induction (AUC4h, not background-subtracted), DNA-recorder readout of cleavage of the substrate (dimensionless); higher = more cleavage of the substrate by the protease variant
Conditions: temperature: 34 °C; time window: 0-4 h after rhamnose induction
Method: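 In vivo DNA recorder in E. coli TOP10(DE3) ΔrhaA at 34 °C. Each TEVp single-site mutant (parent TEVp 0) is paired with a single-site variant of the 7-mer TEVs (canonical ENLYFQ|S). The substrate sits between flexible linkers in a Bxb1-sfGFP-TEVs-SsrA fusion, so cleavage stabilises Bxb1 and speeds flipping of a recombination array, read by NGS. The value is the raw area under the fraction-flipped curve over 0-4 h after rhamnose induction (AUC4h), with ≥20 reads per time point. It is not background-subtracted; inactive controls average about 0.047.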
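Further: Bxb1 expression induced with 0.2% (w/v) L-rhamnose at OD600 near 0.5, cultures sampled hourly, flipped fraction per protease–substrate barcode pair counted by paired-end Illumina sequencing.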

Row | Variant | area with substrate ANLYFQS | area with substrate DNLYFQS | area with substrate FNLYFQS | area with substrate GNLYFQS | area with substrate HNLYFQS | area with substrate INLYFQS | area with substrate KNLYFQS | area with substrate LNLYFQS | area with substrate MNLYFQS | area with substrate NNLYFQS | area with substrate PNLYFQS | area with substrate QNLYFQS | area with substrate SNLYFQS | area with substrate TNLYFQS | area with substrate VNLYFQS | area with substrate WNLYFQS | area with substrate YNLYFQS | area with substrate CNLYFQS | area with substrate RNLYFQS
1 | V126R | 0.0655 | 0.0984 | 0.0635 | 0.0591 | 0.0581 | 0.0668 | 0.074 | 0.0806 | 0.0796 | 0.0688 | 0.0691 | 0.0841 | 0.0886 | 0.0706 | 0.0692 | 0.0625 | 0.0974 | – | –
2 | S127A | 0.0768 | – | 0.0609 | – | 0.0697 | – | 0.0703 | 0.0864 | 0.0694 | – | 0.0716 | 0.0533 | 0.0705 | 0.0706 | – | 0.0516 | – | 0.0716 | –
3 | S127H | 0.0677 | – | 0.0584 | – | 0.0572 | 0.0712 | 0.0729 | – | 0.0735 | 0.0717 | 0.0691 | 0.0486 | 0.0785 | 0.0595 | 0.0372 | 0.056 | 0.0615 | 0.0809 | 0.0556
4 | S127Y | 0.065 | – | – | – | – | – | – | 0.0571 | 0.0689 | 0.0692 | – | – | 0.0804 | 0.0648 | – | 0.0541 | 0.0651 | 0.0807 | –
5 | S130C | 0.0625 | – | – | – | – | – | 0.0762 | 0.0806 | – | 0.0777 | – | – | 0.09 | 0.066 | – | 0.0654 | – | 0.0556 | –
6 | S130G | 0.044 | – | – | – | 0.0329 | 0.0587 | – | 0.072 | 0.0546 | – | 0.0668 | 0.0654 | 0.0634 | 0.0508 | 0.0708 | 0.0652 | – | 0.0645 | –
7 | S130N | 0.0525 | – | – | – | 0.0717 | 0.0622 | 0.0592 | 0.0718 | – | – | 0.0606 | – | – | – | 0.0721 | 0.0554 | – | 0.0675 | –
8 | S130Q | 0.066 | – | – | – | 0.0685 | 0.0815 | 0.0594 | 0.0752 | – | 0.0505 | – | 0.0596 | – | – | 0.0588 | – | 0.0643 | 0.077 | –
9 | C131S | 0.0604 | – | 0.0634 | – | – | – | – | – | – | – | – | – | – | – | – | 0.0484 | – | 0.0423 | –
10 | C131T | 0.0847 | – | 0.0516 | – | 0.078 | 0.0507 | – | 0.0585 | – | – | 0.0685 | – | 0.0776 | – | – | 0.0836 | – | 0.0784 | –
11 | T132R | 0.0594 | – | – | – | – | 0.0619 | – | 0.0548 | – | 0.0606 | 0.0562 | – | – | 0.0662 | – | 0.0454 | – | 0.0532 | –
12 | F133Q | 0.0698 | – | – | – | – | 0.0741 | 0.0682 | – | – | – | 0.0812 | – | – | 0.0664 | – | – | – | 0.0708 | –
13 | F133Y | 0.0681 | 0.0767 | 0.0809 | – | 0.0648 | – | 0.066 | 0.0717 | 0.0749 | 0.0576 | 0.0739 | 0.0705 | 0.0699 | 0.0779 | – | 0.0564 | 0.0562 | – | –
14 | S135Y | 0.0589 | 0.0633 | 0.0564 | 0.055 | 0.0646 | 0.0585 | 0.0619 | 0.0686 | – | 0.06 | 0.0578 | 0.056 | 0.0641 | 0.0515 | 0.0592 | 0.0594 | 0.0587 | – | –
15 | D137C | 0.0543 | – | – | 0.0722 | 0.0689 | – | 0.0702 | – | – | 0.065 | – | – | 0.08 | 0.0666 | – | 0.0587 | 0.0904 | 0.0659 | –
16 | D137K | 0.0609 | – | 0.0643 | – | 0.0631 | – | 0.0674 | 0.0636 | – | – | – | – | – | 0.0539 | – | – | 0.0687 | 0.0593 | –
